The results in this text go back to PubChem BioAssay AID2202238 (Ras Initiative Chemistry Research Team, Frederick National …, 2025).

This is one part of the list. The main result of the screen is listed elsewhere. These columns were measured beside it and carry no call.

This assay has as its target GTPase KRas (Homo sapiens) (UniProt P01116). The assay can be described thus: Covalent labelling of cysteine mutants by fragments, read by mass spectrometry (AID 2202238). Also on record: protein at 5 µM with 500 µM competing thiol for 1.5 h. The following applies: KRAS G12D cysteine mutants, disulfide tethering, MALDI-TOF labeling, stronger effect = higher value, fragment at 500 µM.

The mark [1] stands for this setting: measured here: G60C mutant labeling.
Where [2] appears, read: measured here: G75C mutant labeling.
[3] abbreviates: measured here: H94C mutant labeling.
The mark [4] stands for this setting: measured here: I36C mutant labeling.
Where [5] appears, read: measured here: L120C mutant labeling.
[6] abbreviates: measured here: M67C mutant labeling.
[7] abbreviates: measured here: M72C mutant labeling.
[8] abbreviates: measured here: N26C mutant labeling.
Setting [9] is: measured here: N86C mutant labeling.
Setting [10] is: measured here: P121C mutant labeling.
The mark [11] stands for this setting: measured here: S122C mutant labeling.
[12] abbreviates: measured here: S136C mutant labeling.

Sequence of UniProt P01116 (P01116 whole entry, looked up, the tested form may be a part): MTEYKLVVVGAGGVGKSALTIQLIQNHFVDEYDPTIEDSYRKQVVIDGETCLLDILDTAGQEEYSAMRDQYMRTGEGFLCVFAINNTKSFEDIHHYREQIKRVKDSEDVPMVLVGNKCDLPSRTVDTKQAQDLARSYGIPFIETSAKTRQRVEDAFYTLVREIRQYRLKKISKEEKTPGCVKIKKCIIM

As for `O=C(CCn1cc(Br)ccc1=O)NCCS`, the percent labeling came to 33.5% under setting [1]; 15.5% under setting [2]; 30.3% under setting [3]; 28.4% under setting [4]; 35.9% under setting [5]; 33.7% under setting [6]. In addition, the percent labeling worked out at 24.3% under setting [7]; 32.9% under setting [8]; 25.5% under setting [9]; 32.6% under setting [10]; 29.8% under setting [11]; 40.8% under setting [12].

In turn, `CCCN1C(=O)CCc2cc(NC(=O)CCS)ccc21` showed a percent labeling under setting [2] of 12%; a percent labeling under setting [3] of 27.8%; a percent labeling under setting [4] of 28.3%; a percent labeling under setting [5] of 26.3%; a percent labeling under setting [6] of 23.8%; a percent labeling under setting [7] of 48.3%. Also, the percent labeling runs as follows: under setting [9], 20.6%; under setting [10], 20.5%; under setting [11], 20.1%; under setting [12], 37.1%.

Turning to `O=C(NCCS)c1cnnc(-c2ccccc2)c1`, the percent labeling is, setting by setting: under setting [1], 27.7%; under setting [2], 15.6%; under setting [3], 18.7%; under setting [4], 21.2%; under setting [5], 19.2%; under setting [6], 24.9%. Also, the percent labeling runs as follows: under setting [7], 54.4%; under setting [8], 32.1%; under setting [9], 12.5%; under setting [10], 26.9%; under setting [11], 17.3%; under setting [12], 39.4%.

For `CCCn1c(=O)[nH]c(=O)c2cc(C(=O)NCCS)cnc21`, the percent labeling runs as follows: under setting [1], 21.3%; under setting [2], 7.6%; under setting [3], 11.7%; under setting [4], 14.7%; under setting [5], 11.3%; under setting [6], 15.5%. Further, the percent labeling by setting is: under setting [7], 32.5%; under setting [8], 29.8%; under setting [9], 15.8%; under setting [10], 10.2%; under setting [11], 10.2%; under setting [12], 21.2%.

As to `Cc1noc(C)c1CN(C)CCC(=O)NCCS`, the percent labeling runs as follows: under setting [1], 23.6%; under setting [2], 8.6%; under setting [3], 26.5%; under setting [4], 23.3%; under setting [5], 26.2%; under setting [6], 28.2%. The percent labeling under setting [7] amounted to 8.9%; the percent labeling under setting [8] came out at 31.9%; the percent labeling under setting [9] stood at 18.3%; the percent labeling under setting [10] was 26%; the percent labeling under setting [11] was 22.9%; the percent labeling under setting [12] came out at 39.2%.

For `O=C(NCCS)[C@@H]1Cc2ccccc2O[C@H]1C(F)(F)F`, the percent labeling worked out at 40.8% under setting [1]; 14.5% under setting [2]; 19% under setting [3]; 15.8% under setting [4]; 24.1% under setting [5]; 15.6% under setting [6]. Moreover, the percent labeling runs as follows: under setting [7], 29.4%; under setting [8], 27.8%; under setting [9], 23.1%; under setting [10], 22.6%; under setting [11], 13.1%; under setting [12], 19.5%.

Turning to `O=C(NCCS)c1csc(Nc2cc(F)cc(F)c2)n1`, the percent labeling reads like this: under setting [1], 24.2%; under setting [2], 53%; under setting [3], 22%; under setting [4], 12.7%; under setting [5], 18.1%; under setting [6], 12.2%. The percent labeling came out at 65.2% under setting [7]; 27.1% under setting [8]; 12.1% under setting [9]; 13.5% under setting [10]; 8.1% under setting [11]; 24.1% under setting [12].

`Cc1ccc(C(=O)NCCS)cc1-n1cccc1`: the percent labeling turned out to be 16.9% under setting [1]; 7% under setting [2]; 8.6% under setting [3]; 7.3% under setting [4]; 10.6% under setting [5]; 4.9% under setting [6]. The percent labeling under setting [7] was determined as 21.8%; the percent labeling under setting [8] stood at 21.8%; the percent labeling under setting [9] is 0%; the percent labeling under setting [10] stood at 7.5%; the percent labeling under setting [11] was found to be 5.1%; the percent labeling under setting [12] amounted to 40.1%.

On to `Cc1csc2ncc(C(=O)NCCS)c(=O)n12`, for which the percent labeling worked out at 30.8% under setting [1]; 27.8% under setting [2]; 22.8% under setting [3]; 21.3% under setting [4]; 30.7% under setting [5]; 26.5% under setting [6]. The same molecule had a percent labeling under setting [7] of 56.6%; a percent labeling under setting [8] of 40.8%; a percent labeling under setting [9] of 15.6%; a percent labeling under setting [10] of 15.1%; a percent labeling under setting [11] of 17.8%; a percent labeling under setting [12] of 43.1%.

As for `Cc1cc(C(F)F)n2ncc(C(=O)NCCS)c2n1`, the percent labeling turned out to be 40.6% under setting [1]; 24.7% under setting [2]; 31.8% under setting [3]; 28% under setting [4]; 34% under setting [5]; 41.5% under setting [6]. For the same molecule, the percent labeling under setting [7] came out at 39.6%; the percent labeling under setting [8] came to 37%; the percent labeling under setting [9] was found to be 21.6%; the percent labeling under setting [10] was 26.3%; the percent labeling under setting [11] worked out at 26.1%; the percent labeling under setting [12] turned out to be 52%.

In the case of `Cc1ccc(Nc2cccc(C(=O)NCCS)c2)nn1`, the percent labeling reads like this: under setting [1], 39.6%; under setting [2], 25.3%; under setting [3], 36.4%; under setting [4], 22.6%; under setting [5], 39.1%; under setting [6], 29.8%. Also, the percent labeling under setting [7] worked out at 45%; the percent labeling under setting [8] amounted to 51.5%; the percent labeling under setting [9] stood at 36.4%; the percent labeling under setting [10] is 23.5%; the percent labeling under setting [11] is 22.5%; the percent labeling under setting [12] was 38.2%.

Molecule `Cc1ccn(-c2ccccc2C(=O)NCCS)n1` came in with a percent labeling under setting [1] of 38.2%; a percent labeling under setting [2] of 13.9%; a percent labeling under setting [3] of 35.5%; a percent labeling under setting [4] of 29.8%; a percent labeling under setting [5] of 31.6%; a percent labeling under setting [6] of 58.1%. The molecule also returned a percent labeling under setting [7] of 29.4%; a percent labeling under setting [8] of 35.2%; a percent labeling under setting [9] of 22.8%; a percent labeling under setting [10] of 32.3%; a percent labeling under setting [11] of 28.8%; a percent labeling under setting [12] of 46.1%.

The molecule `O=C(NCCS)C1(C2CCOCC2)CCOCC1` yielded a percent labeling under setting [1] of 19.7%; a percent labeling under setting [2] of 6.7%; a percent labeling under setting [3] of 27.4%; a percent labeling under setting [4] of 22.9%; a percent labeling under setting [5] of 26.3%; a percent labeling under setting [6] of 27.1%. Besides, the percent labeling was determined as 7.2% under setting [7]; 30.8% under setting [8]; 25.3% under setting [9]; 29.3% under setting [10]; 31% under setting [11]; 34.9% under setting [12].

With `CC1(C)CNC(=O)c2c(C(=O)NCCS)coc2C1`, the percent labeling runs as follows: under setting [1], 30.7%; under setting [2], 14.5%; under setting [3], 33.1%; under setting [4], 23%; under setting [5], 45.5%; under setting [6], 33.1%. Moreover, the percent labeling is 43.5% under setting [7]; 34.4% under setting [8]; 24.1% under setting [9]; 28.4% under setting [10]; 30% under setting [11]; 48.2% under setting [12].

In the case of `O=C(NCCS)c1ccc2cc(O)ccc2c1`, the percent labeling runs as follows: under setting [1], 35.8%; under setting [2], 18.9%; under setting [3], 23.7%; under setting [4], 16%; under setting [5], 9.4%; under setting [6], 16.5%. For the same molecule, the percent labeling reads like this: under setting [7], 55.7%; under setting [8], 47.7%; under setting [9], 18.1%; under setting [10], 17.8%; under setting [11], 11.6%; under setting [12], 29.6%.

As to `CC(C)CNC(=O)N1CCCC(CC(=O)NCCS)C1` (stereo unspecified), the percent labeling by setting is: under setting [1], 20.7%; under setting [2], 8.1%; under setting [3], 27.4%; under setting [4], 17.1%; under setting [5], 29.4%; under setting [6], 22.2%. Besides, the percent labeling by setting is: under setting [7], 12%; under setting [8], 24.3%; under setting [9], 19.6%; under setting [10], 23.3%; under setting [11], 23.3%; under setting [12], 32.9%.

For the molecule `Cc1nc2ccccc2n(CCNC(=O)CCS)c1=O`, the percent labeling by setting is: under setting [2], 13.6%; under setting [3], 32.1%; under setting [4], 41.6%; under setting [5], 39.6%; under setting [6], 37%; under setting [7], 29.4%. Besides, the percent labeling was 22% under setting [9], 32.5% under setting [10], 31.8% under setting [11] and 53% under setting [12].

As for `COC(=O)c1ccc(CNC(=O)CCS)nc1C1CC1`, the percent labeling reads like this: under setting [2], 15.8%; under setting [3], 31.7%; under setting [4], 35%; under setting [5], 25%; under setting [6], 39.2%; under setting [7], 31.5%. This molecule also registered a percent labeling under setting [9] of 27.3%, a percent labeling under setting [10] of 28.1%, a percent labeling under setting [11] of 31.9% and a percent labeling under setting [12] of 49.8%.

Regarding `Cc1c(C(=O)NCCS)[nH]c2cc(Cl)ccc12`, the percent labeling by setting is: under setting [1], 47.8%; under setting [2], 14.4%; under setting [3], 10.7%; under setting [4], 6.9%; under setting [5], 14.5%; under setting [6], 11.1%. Besides, the percent labeling by setting is: under setting [7], 41.6%; under setting [8], 27.9%; under setting [9], 11.2%; under setting [10], 10.1%; under setting [11], 8%; under setting [12], 12%.

Molecule `CCNC(=O)CN1CCN(C(=O)CCS)CC1` had a percent labeling under setting [2] of 8.1%; a percent labeling under setting [3] of 29.5%; a percent labeling under setting [4] of 33.4%; a percent labeling under setting [5] of 29.1%; a percent labeling under setting [6] of 37.2%; a percent labeling under setting [7] of 15.5%. Besides, the percent labeling was 25.6% under setting [9], 35.1% under setting [10], 35.7% under setting [11] and 55.6% under setting [12].

Turning to `CNC(=O)c1cccc(OCC(=O)NCCS)c1`, the percent labeling is, setting by setting: under setting [1], 28%; under setting [2], 18.8%; under setting [3], 30.5%; under setting [4], 23.7%; under setting [5], 48%; under setting [6], 27.6%. Moreover, the percent labeling came out at 25.7% under setting [7]; 42.5% under setting [8]; 23.4% under setting [9]; 28.9% under setting [10]; 30.1% under setting [11]; 40.3% under setting [12].

On to `O=C(CCS)NCCNC(=O)c1cc2ccccc2[nH]1`, for which the percent labeling came to 11.9% under setting [2]; 29.2% under setting [3]; 33.2% under setting [4]; 27.1% under setting [5]; 41.2% under setting [6]; 27.9% under setting [7]. The percent labeling by setting is: under setting [9], 24.7%; under setting [10], 28%; under setting [11], 23.3%; under setting [12], 36.8%.

Consider `O=C(NCCS)C1(c2cccnc2)CC(F)(F)C1`, for which the percent labeling was determined as 42.3% under setting [1]; 16% under setting [2]; 30.5% under setting [3]; 36.5% under setting [4]; 31.8% under setting [5]; 30.5% under setting [6]. The percent labeling by setting is: under setting [7], 18.6%; under setting [8], 37.6%; under setting [9], 33.9%; under setting [10], 28.7%; under setting [11], 27.8%; under setting [12], 43.7%.
